Paper PMC3156899 (Clinical cancer research : an official journal of the …, 2011)

Test system: CD4+ T cells from DP4+ CMV Ab+ healthy donors
Type: cell-based, human

221DQYVKVYLESFCEDVPSGKL240 [pp65#23]
donors from whom peptide-specific CD4+ T cells were generated (DP4-aAPC pulsed with pp65#23 peptide, DP4+ CMV Ab+ donors): all five | time peptide-specific CD4+ T cells were maintained in culture (without allogeneic feeder cells or T cell cloning, Figure 3A): greater than 50 days
